Reference: the antibiotic and cytotoxicity screens of Wong et al. (2023)
The other results are listed elsewhere or left out.

Key:
HSkMC = human skeletal muscle cells; experiment: cytotoxicity call (relative viability < 0.9); details: 10 µM
HepG2 = experiment: cytotoxicity call (relative viability < 0.9); details: 10 µM
S. aureus RN4220 = experiment: growth inhibition call (relative growth <= 0.2); details: 50 µM

SMILES	cytotoxicity call (HSkMC)	cytotoxicity call (HepG2)	growth inhibition call (S. aureus RN4220)
C[C@H]1CN([C@@H](C)CO)C(=O)c2cc(NC(=O)Nc3ccc(C(F)(F)F)cc3)ccc2O[C@H]1CN(C)Cc1ccc(-c2ccccc2)cc1	active	active	inactive
C[C@@H]1CN([C@@H](C)CO)C(=O)c2cccc(NC(=O)Nc3ccccc3)c2O[C@H]1CN(C)C(=O)Nc1cccc2ccccc12	inactive	inactive	inactive
C[C@@H]1CN([C@H](C)CO)C(=O)c2cc(Br)cnc2O[C@@H]1CN(C)S(=O)(=O)c1ccccc1	inactive	inactive	inactive
C[C@@H]1CN([C@@H](C)CO)C(=O)c2cc(NC(=O)C3CC3)ccc2O[C@@H]1CN(C)S(=O)(=O)c1ccccc1	inactive	inactive	inactive
C[C@@H]1CN([C@@H](C)CO)C(=O)c2cc(NC(=O)Cc3ccccc3)ccc2O[C@@H](C)CCCCO[C@H]1CN(C)C(=O)Cc1ccccc1	inactive	inactive	inactive
C[C@@H]1CN([C@@H](C)CO)C(=O)c2cc(NC(=O)C3CCCCC3)ccc2O[C@@H]1CN(C)S(=O)(=O)c1cn(C)cn1	inactive	inactive	inactive
CC(C)NC(=O)Nc1ccc2c(c1)C(=O)N([C@@H](C)CO)C[C@@H](C)[C@H](CN(C)C(=O)Nc1cccc3ccccc13)OCCCC[C@H](C)O2	inactive	inactive	inactive
COc1ccc(NC(=O)N(C)C[C@@H]2Oc3c(NC(=O)Nc4cccc5ccccc45)cccc3C(=O)N([C@@H](C)CO)C[C@H]2C)cc1	inactive	inactive	inactive
COc1ccc(CN(C)C[C@H]2OCCCC[C@H](C)Oc3ccc(NC(=O)Nc4cccc5ccccc45)cc3C(=O)N([C@@H](C)CO)C[C@@H]2C)cc1	inactive	inactive	inactive
C[C@H]1CN([C@@H](C)CO)C(=O)c2ccccc2-c2ccccc2CO[C@@H]1CN(C)Cc1ccc(C(F)(F)F)cc1	inactive	inactive	inactive
Cc1noc(C)c1S(=O)(=O)Nc1ccc2c(c1)C(=O)N([C@H](C)CO)C[C@H](C)[C@@H](CN(C)Cc1ccncc1)O2	inactive	inactive	inactive
C[C@@H]1CN([C@H](C)CO)C(=O)c2cc(NC(=O)CCC(F)(F)F)ccc2O[C@@H](C)CCCCO[C@H]1CN(C)Cc1ccccc1	inactive	inactive	inactive
C[C@H](CO)N1C[C@H](C)[C@H](CN(C)C(=O)Cc2ccccn2)Oc2ncc(-c3ccc(F)cc3)cc2C1=O	inactive	inactive	inactive
C[C@@H]1CN([C@H](C)CO)C(=O)c2cc(NS(=O)(=O)c3ccc(F)cc3)ccc2O[C@@H](C)CCCCO[C@@H]1CN(C)Cc1ccc(C(=O)O)cc1	inactive	inactive	inactive
COc1ccc2c3c([nH]c2c1)[C@H](CO)N(Cc1cc(ccc1F)F)C[C@]13CCN(CC1)C(=O)CN(C)C	inactive	inactive	inactive
CCCNC(=O)N(C)C[C@@H]1Oc2cc(C#Cc3ccccn3)ccc2S(=O)(=O)N([C@H](C)CO)C[C@@H]1C	inactive	inactive	inactive
CN(C)C(=O)C[C@H]1C=C[C@H](NC(=O)C2CC2)[C@@H](CO)O1	inactive	inactive	inactive
CO[C@H]1CN(C)C(=O)c2ccc(NC(=O)Nc3cccc(F)c3)cc2OC[C@@H](C)N(C(=O)Nc2c(C)noc2C)C[C@@H]1C	inactive	inactive	inactive
CC(C)(C)[S@@](=O)N1Cc2cc(C(=O)NCc3ccc4c(c3)OCO4)nc(-c3cccc(-c4ccncc4)c3)c2[C@H]1CCO	inactive	inactive	inactive
Cc1noc(C)c1S(=O)(=O)N(C)C[C@@H]1Oc2ccc(NC(=O)Cc3cn(C)c4ccccc34)cc2CC(=O)N([C@H](C)CO)C[C@H]1C	inactive	inactive	inactive
CC(=O)OC1CC2CCC3C(CCC4(C)C3CC([N+]3(C)CCCCC3)C4OC(C)=O)C2(C)CC1N1CCCCC1.[Br-] (configuration not stated)	inactive	inactive	inactive
COc1ccc(NC(=O)N(C)C[C@H]2Oc3ccc(NS(C)(=O)=O)cc3CC(=O)N([C@@H](C)CO)C[C@H]2C)cc1	inactive	inactive	inactive
COc1cccc(NC(=S)NN)c1	inactive	inactive	inactive
Cc1noc(C)c1NC(=O)Nc1ccc2c(c1)C(=O)N([C@H](C)CO)C[C@@H](C)[C@@H](CN(C)Cc1ccc(C(=O)O)cc1)OCCCC[C@@H](C)O2	inactive	inactive	inactive
CCc1nc2ccc(C(=O)NCc3ccc4c(c3)OCO4)cn2c1N(CC)Cc1cccc(Br)c1	inactive	inactive	inactive
C[C@H]1CN([C@@H](C)CO)C(=O)Cc2cc(NS(=O)(=O)c3ccc(Cl)cc3)ccc2O[C@@H]1CN(C)Cc1ccc(Cl)c(Cl)c1	inactive	inactive	inactive
C[C@H]1CN([C@@H](C)CO)C(=O)c2cccc(NC(=O)c3nc4ccccc4s3)c2O[C@H]1CN(C)Cc1ccc(C(F)(F)F)cc1	inactive	inactive	inactive
Cc1ccc(S(=O)(=O)Nc2ccc3c(c2)C(=O)N([C@H](C)CO)C[C@H](C)[C@@H](CN(C)Cc2ccncc2)OCCCC[C@@H](C)O3)cc1	inactive	inactive	inactive
C[C@H]1CN([C@@H](C)CO)C(=O)c2cccc(NS(=O)(=O)c3cn(C)cn3)c2O[C@@H]1CN(C)Cc1ccc(C(=O)Nc2ccccc2N)cc1	inactive	inactive	inactive
